# Results published in PubChem BioAssay AID2675 (National Center for Advancing Translational Sciences (NCATS), 2010).
# Screen size: about 280,000 compounds; about 100 (0.036%) were called active. Inconclusive means that the source gave no clear call. Such entries were picked first, then a sample of the others. Calls come from the whole dose curve; as a rule, active = well fitted inhibition curve with a large enough effect in the signal ratio, with a control signal flat (not every such curve was filed as active); inconclusive = small, poorly fitted or top-dose-only effect, or effect the other way, or a change in a side signal; inactive = no such curve, though single readings can be large or run the other way; the % refers to the signal ratio. Potencies of inconclusive entries are doubtful fits and often do not repeat. A note “side channel” means that the fit belongs to a control or component signal, not to the main read-out.
# Target: Muscleblind-like protein 1 (Homo sapiens) (UniProt Q9NR56)
# Chain of UniProt Q9NR56 (Q9NR56 whole entry, looked up): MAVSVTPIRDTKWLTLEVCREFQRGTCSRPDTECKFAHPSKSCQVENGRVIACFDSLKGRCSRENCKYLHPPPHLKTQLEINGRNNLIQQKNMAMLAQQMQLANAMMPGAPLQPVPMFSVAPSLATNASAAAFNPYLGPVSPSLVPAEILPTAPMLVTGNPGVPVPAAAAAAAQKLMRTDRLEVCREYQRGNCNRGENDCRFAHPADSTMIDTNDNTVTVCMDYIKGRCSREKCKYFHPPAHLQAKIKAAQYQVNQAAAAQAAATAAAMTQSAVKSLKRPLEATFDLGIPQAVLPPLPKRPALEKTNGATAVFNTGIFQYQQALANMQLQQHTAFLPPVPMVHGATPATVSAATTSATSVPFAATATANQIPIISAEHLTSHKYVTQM
# Assay: qHTS Assay for Inhibitors of MBNL1-poly(CUG) RNA binding
# Conditions: TR-FRET MBNL1-His/biotin-(CUG)12 binding, 665/545 ratio; series mostly up to 57.5 µM
# How it was run: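 Compounds (final 92 nM to 58 uM) are added to His-tagged MBNL1 and biotin-(CUG)12, then terbium anti-His antibody and streptavidin-XL665 (5 nM final). After 60 min at room temperature, the 665/545 nm ratio is read.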
# Potency is the fitted concentration of half-maximal effect; tags give direction and shape of the fitted curve or compound fluorescence and quenching.
row,Structure (SMILES),Potency
1,COc1ccc(-n2nc(C(=O)NCC(=O)NCCCN3CCN(C)CC3)c3ccccc3c2=O)cc1OC,"inconclusive: 28.2 µM [quencher, side channel, single point]"
2,O=C1NC(=S)N/C1=C\c1ccc(N2CCOCC2)cc1,"inconclusive: 39.8 µM [quencher, single point]"
3,CN(CC(=O)Nc1cccc(F)c1)CC(=O)Nc1cccc([N+](=O)[O-])c1,"inconclusive: 15.8 µM [quencher, side channel, partial curve]"
4,COC(=O)C1=C(CSc2nc3c(cc2C#N)CN(C)CC3)OC(N)=C(C#N)C1c1ccc(F)cc1 (stereo not drawn),"inconclusive: 8.91 µM [quencher, side channel, partial curve, poor fit]"
5,Cc1nc(N)sc1C(=O)N/N=C/c1ccc([N+](=O)[O-])cc1,inactive
6,O=Nc1c2cc(-c3ccccc3)[nH]nc-2c2ccccc12,"inconclusive: 39.8 µM [quencher, side channel, partial curve, poor fit]"
7,CC(=O)c1c(C(C)=O)c(C)n(NC(=O)c2ccncc2)c1C,"inconclusive: 100 µM [inhibitor, single point]"
8,COc1ccccc1/C=N/OCc1cc(C(C)=O)ccc1OC,inactive
9,CCOC(=O)C1CCCN(C(=O)c2cnn3c(C(F)F)cc(-c4ccc(C)cc4)nc23)C1 (stereo not drawn),"inconclusive: 12.6 µM [quencher, side channel, partial curve]"
10,O=[N+]([O-])c1cc(S(=O)(=O)N2CCCC2)ccc1N/N=C1/CCCc2ccccc21,inactive
11,COc1cccc(/C=N/NC(=S)Nc2cccc(C(=O)O)c2)c1,inactive
12,Cn1cccc1-c1nc2ccc([N+](=O)[O-])cc2[nH]1,"inconclusive: 12.6 µM [quencher, partial curve]"
13,COC(=O)c1sc(N2C(=O)C(O)=C(C(=O)c3ccc(C)o3)C2c2ccc(F)cc2)nc1C (stereo not drawn),inactive
14,Clc1ccccc1CN1CCN(CCCc2ccccc2)CC1,inactive
15,CN1CCN(Cc2c(C(=O)N/N=C/c3cccc(Br)c3)nnn2-c2nonc2N)CC1,"inconclusive: 17.8 µM [quencher, side channel, partial curve]"
16,CCNC(=O)NC(=O)COC(=O)CCCc1nc2ccccc2s1,inactive
17,C=CCn1c(NC(=O)c2ccc(Br)o2)c(S(=O)(=O)c2ccccc2)c2nc3ccccc3nc21,"inconclusive: 25.1 µM [quencher, side channel, single point]"
18,CC(C)c1ccc(/C=C2\Oc3c(ccc(O)c3CN3CCN(C)CC3)C2=O)cc1,"inconclusive: 31.6 µM [quencher, partial curve]"
19,O=C(Nc1ccc2c(c1)C(=O)N(c1ccccc1)C2=O)C1CCCO1 (stereo not drawn),"inconclusive: 25.1 µM [quencher, side channel, partial curve]"

row,Structure (SMILES),Potency
1,COc1cc(/C=N/NC(=O)c2cc(-c3c(C)nn(-c4ccccc4)c3C)n[nH]2)ccc1O,"inconclusive: 25.1 µM [quencher, side channel, single point]"
2,COc1ccccc1-n1cnc2c(c1=O)c1nc3ccccc3nc1n2-c1ccc(C)c(C)c1,"inconclusive: 0.0282 µM [fluorescent, side channel, full curve]"
3,CCOCCCn1cnc2c(c1=O)c1nc3ccccc3nc1n2-c1ccccc1,"inconclusive: 3.16 µM [quencher, full curve]"
4,CCOC(=O)N1CCN(c2c(-c3ccc(C(C)C)cc3)c(=O)c2=O)CC1,"inconclusive: 15.8 µM [quencher, side channel, partial curve]"
5,O=c1c2ccccc2ncn1-c1ccc(Br)cc1[N+](=O)[O-],"inconclusive: 8.91 µM [quencher, partial curve]"
6,O=C(O)c1ccccc1C(=O)Nc1ccc(Nc2ccc([N+](=O)[O-])cc2[N+](=O)[O-])cc1,"inconclusive: 14.1 µM [quencher, side channel, partial curve]"
7,Cc1cc2ncn(-c3ncccc3[N+](=O)[O-])c2cc1C,"inconclusive: 6.31 µM [quencher, side channel, full curve]"
8,O=C(C[n+]1ccc(-c2nnc3n2CCC3)cc1)c1ccc(Cl)cc1,"inconclusive: 12.6 µM [quencher, side channel, partial curve]"
9,COc1cc([N+](=O)[O-])cc(/C=N/NC(=O)CSc2ccccn2)c1O,"inconclusive: 35.5 µM [quencher, side channel, single point]"
10,CC(C)OC(=O)CSc1nnc(-c2ccccc2)n1N,inactive
11,CC(C)NC(=O)c1cc2nc(-c3ccco3)cc(C(F)(F)F)n2n1,"inconclusive: 28.2 µM [quencher, partial curve]"
12,O=C(O)COc1ccc(NC(=O)c2ccc3c(c2)C(=O)N(Cc2ccccc2)C3=O)cc1,"inconclusive: 10 µM [quencher, side channel, partial curve]"
13,CCCCn1c(/N=C/c2ccccc2NS(=O)(=O)c2ccc(C)cc2)nc2ccccc21,"inconclusive: 63.1 µM [inhibitor, partial curve]"
14,C/C(CC(=O)Nc1cccc2c1CCCC2)=N\NC(=O)COc1ccccc1,"inconclusive: 1.26 µM [fluorescent, side channel, full curve, poor fit]"
15,Cc1nn(C)c(C)c1NC(=S)Nc1ccc(S(=O)(=O)Nc2ncccn2)cc1,inactive
16,COc1ccc(S(=O)(=O)CCC(=O)N2CCN(c3ccc([N+](=O)[O-])cc3)CC2)cc1,"inconclusive: 14.1 µM [quencher, side channel, partial curve]"
17,Cc1ccc(C(=O)CSc2nnc(C(C)C)n2C)cc1C,inactive
18,Cc1cccc2nc(CSc3nc4ccc([N+](=O)[O-])cc4[nH]3)cn12,"inconclusive: 31.6 µM [fluorescent, side channel, partial curve, poor fit]"
19,Cc1ccc(-n2cnn(-c3ccc([N+](=O)[O-])cc3[N+](=O)[O-])c2=O)cc1,"inconclusive: 3.16 µM [quencher, side channel, full curve]"
